From the supplement of paper PMC8728848
Some of the results follow.

Columns and labels:
Experiment in all cases: glycan array binding signal (z-score within array); higher = stronger binding
Settings in all cases: glycan notation: IUPAC condensed, linker removed
[1] = target: Gal(b1-4)GlcNAc(b1-3)Gal(b1-4)GlcNAc(b1-3)Gal(b1-4)GlcNAc(b1-3)Gal(b1-4)GlcNAc(b1-2)Man(a1-3)[Gal(b1-4)GlcNAc(b1-3)Gal(b1-4)GlcNAc(b1-3)Gal(b1-4)GlcNAc(b1-3)Gal(b1-4)GlcNAc(b1-2)Man(a1-6)]Man(b1-4)GlcNAc(b1-4)[Fuc(a1-6)]GlcNAc
Outline: (§1)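 Glycan array data came from 3228 arrays in the Consortium for Functional Glycomics database, and only arrays with an available protein sequence were kept. Glycan names were put into IUPAC-condensed notation, and columns mapping to the same glycan were averaged. The binding signal is a within-array Z-score, averaged across arrays of one protein sequence run at different concentrations or buffers and across linkers. A negative Z-score can be read as non-binding.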

[2] = target: Gal(b1-4)GlcNAc(b1-3)Gal(b1-4)GlcNAc(b1-3)Gal(b1-4)GlcNAc(b1-3)Gal(b1-4)GlcNAc(b1-2)[Gal(b1-4)GlcNAc(b1-3)Gal(b1-4)GlcNAc(b1-3)Gal(b1-4)GlcNAc(b1-3)Gal(b1-4)GlcNAc(b1-6)]Man(a1-6)[Gal(b1-4)GlcNAc(b1-3)Gal(b1-4)GlcNAc(b1-3)Gal(b1-4)GlcNAc(b1-3)Gal(b1-4)GlcNAc(b1-2)Man(a1-3)]Man(b1-4)GlcNAc(b1-4)[Fuc(a1-6)]GlcNAc
Outline: as §1

[3] = target: Gal(b1-4)GlcNAc(b1-3)Gal(b1-4)GlcNAc(b1-3)Gal(b1-4)GlcNAc(b1-3)Gal(b1-4)GlcNAc(b1-3)Gal(b1-4)GlcNAc(b1-2)Man(a1-3)[Gal(b1-4)GlcNAc(b1-3)Gal(b1-4)GlcNAc(b1-3)Gal(b1-4)GlcNAc(b1-3)Gal(b1-4)GlcNAc(b1-3)Gal(b1-4)GlcNAc(b1-2)Man(a1-6)]Man(b1-4)GlcNAc(b1-4)GlcNAc
Outline: as §1

[4] = target: Gal(b1-4)GlcNAc(b1-3)Gal(b1-4)GlcNAc(b1-3)Gal(b1-4)GlcNAc(b1-3)Gal(b1-4)GlcNAc(b1-3)Gal(b1-4)GlcNAc(b1-2)Man(a1-3)[Gal(b1-4)GlcNAc(b1-3)Gal(b1-4)GlcNAc(b1-3)Gal(b1-4)GlcNAc(b1-3)Gal(b1-4)GlcNAc(b1-3)Gal(b1-4)GlcNAc(b1-2)Man(a1-6)]Man(b1-4)GlcNAc(b1-4)[Fuc(a1-6)]GlcNAc
Outline: as §1

[5] = target: Gal(b1-4)GlcNAc(b1-3)Gal(b1-4)GlcNAc(b1-3)Gal(b1-4)GlcNAc(b1-3)Gal(b1-4)GlcNAc(b1-3)Gal(b1-4)GlcNAc(b1-2)[Gal(b1-4)GlcNAc(b1-3)Gal(b1-4)GlcNAc(b1-3)Gal(b1-4)GlcNAc(b1-3)Gal(b1-4)GlcNAc(b1-3)Gal(b1-4)GlcNAc(b1-6)]Man(a1-6)[Gal(b1-4)GlcNAc(b1-3)Gal(b1-4)GlcNAc(b1-3)Gal(b1-4)GlcNAc(b1-3)Gal(b1-4)GlcNAc(b1-3)Gal(b1-4)GlcNAc(b1-2)Man(a1-3)]Man(b1-4)GlcNAc(b1-4)[Fuc(a1-6)]GlcNAc
Outline: as §1

[6] = target: Gal(b1-4)GlcNAc(b1-3)Gal(b1-4)GlcNAc(b1-3)Gal(b1-4)GlcNAc(b1-3)Gal(b1-4)GlcNAc(b1-3)Gal(b1-4)GlcNAc(b1-3)Gal(b1-4)GlcNAc(b1-2)Man(a1-3)[Gal(b1-4)GlcNAc(b1-3)Gal(b1-4)GlcNAc(b1-3)Gal(b1-4)GlcNAc(b1-3)Gal(b1-4)GlcNAc(b1-3)Gal(b1-4)GlcNAc(b1-3)Gal(b1-4)GlcNAc(b1-2)Man(a1-6)]Man(b1-4)GlcNAc(b1-4)GlcNAc
Outline: as §1

[7] = target: Gal(b1-4)GlcNAc(b1-3)Gal(b1-4)GlcNAc(b1-3)GalNAc
Outline: as §1

[8] = target: Gal(b1-4)GlcNAc(b1-3)Gal(b1-4)GlcNAc(b1-3)[Gal(b1-4)GlcNAc(b1-3)Gal(b1-4)GlcNAc(b1-6)]GalNAc
Outline: as §1

[9] = target: Gal(b1-4)GlcNAc(b1-3)Gal(b1-4)GlcNAc(b1-6)[Gal(b1-3)]GalNAc
Outline: as §1

[10] = target: Gal(b1-4)GlcNAc(b1-3)Gal(b1-4)[Fuc(a1-3)]GlcNAc(b1-3)Gal(b1-4)[Fuc(a1-3)]GlcNAc
Outline: as §1

[11] = target: Gal(b1-4)GlcNAc(b1-3)GalNAc
Outline: as §1

[12] = target: Gal(b1-4)GlcNAc(b1-3)[Fuc(a1-3)GlcNAc(b1-6)]Gal(b1-4)Glc
Outline: as §1

[13] = target: Gal(b1-4)GlcNAc(b1-3)[Gal(b1-4)GlcNAc(b1-6)]Gal(b1-4)GlcNAc
Outline: as §1

[14] = target: Gal(b1-4)GlcNAc(b1-3)[GlcNAc(b1-6)]Gal(b1-4)GlcNAc
Outline: as §1

[15] = target: Gal(b1-4)GlcNAc(b1-6)Gal(b1-4)GlcNAc
Outline: as §1

[16] = target: Gal(b1-4)GlcNAc(b1-6)GalNAc
Outline: as §1

[17] = target: Gal(b1-4)GlcNAc(b1-6)[Gal(b1-3)]GalNAc
Outline: as §1

[18] = target: Gal(b1-4)GlcNAc(b1-6)[Gal(b1-4)GlcNAc(b1-3)]GalNAc
Outline: as §1

Gal(b1-4)GlcNAc6P = target: Gal(b1-4)GlcNAc6P
Outline: as §1

Gal(b1-6)Gal = target: Gal(b1-6)Gal
Outline: as §1

Gal3S(b1-3)GalNAc = target: Gal3S(b1-3)GalNAc
Outline: as §1

Gal3S(b1-3)GlcNAc = target: Gal3S(b1-3)GlcNAc
Outline: as §1

[19] = target: Gal3S(b1-3)[Fuc(a1-4)]GlcNAc
Outline: as §1

Gal3S(b1-4)Glc = target: Gal3S(b1-4)Glc
Outline: as §1

Gal3S(b1-4)Glc6S = target: Gal3S(b1-4)Glc6S
Outline: as §1

Gal3S(b1-4)GlcNAc = target: Gal3S(b1-4)GlcNAc
Outline: as §1

[20] = target: Gal3S(b1-4)[Fuc(a1-3)]Glc6S
Outline: as §1

[21] = target: Gal3S(b1-4)[Fuc(a1-3)]GlcNAc
Outline: as §1

[22] = target: Gal3S(b1-4)[Fuc(a1-3)]GlcNAc6S
Outline: as §1

Gal3S4S(b1-4)GlcNAc = target: Gal3S4S(b1-4)GlcNAc
Outline: as §1

Gal3S6S(b1-4)GlcNAc = target: Gal3S6S(b1-4)GlcNAc
Outline: as §1

Gal3S6S(b1-4)GlcNAc6S = target: Gal3S6S(b1-4)GlcNAc6S
Outline: as §1

Gal4S(b1-4)GlcNAc = target: Gal4S(b1-4)GlcNAc
Outline: as §1

Gal4S6S(b1-4)GlcNAc = target: Gal4S6S(b1-4)GlcNAc
Outline: as §1

Gal6P(b1-4)GlcNAc = target: Gal6P(b1-4)GlcNAc
Outline: as §1

Gal6S(b1-3)GlcNAc = target: Gal6S(b1-3)GlcNAc
Outline: as §1

Gal6S(b1-3)GlcNAc6S = target: Gal6S(b1-3)GlcNAc6S
Outline: as §1

Gal6S(b1-4)Glc = target: Gal6S(b1-4)Glc
Outline: as §1

B1: PX9961C-bth-497-22-497 (Bacteroides thetaiotaomicron) (protein)
chain: DWLDLNTTSSVETGQAIVTLDDAQIALNGIYRLASGHSYYGDNYWYYGDCRAADVQARITKGDGKRVSPYYEYNVLASDNLNIVLPWNTVYKVIRQTNNLIQKIESGSIQSSDTKELNRIKSEALVMRGLSLFNLTRLFGMPYTNDKGASLGVPIETSPSDPTHKPSRSTVAQCYEQVVSDMSNALSGLRQETSNGYINYWAAQALLSRVYLNMGEYQKAYDAATDVIKNNGGRYQLYSYEEYPNVWGQDFQSESLFELYITLSEPSGGTGGEGAPMVYANEATVDWNNLILSEDFLNLLNEDPKDVRHCLTKESVIENNTGLPAAAMHEKVYLAKFPGKTGDDPKTNNICIIRLSEVYLNAAEAGLKKGTDIEEAQGYLNDIISRRTTDTSQQVSTETFTLDRILKERRKELVGEGEVFYDYLRNGLAIERKGSWHLETLKASNAQKIEATDLRIALPIPQSEIDANPNIQQNPR
[1]
  glycan array binding signal (z-score): 1.14
[2]
  glycan array binding signal (z-score): -0.171
[3]
  glycan array binding signal (z-score): 0.902
[4]
  glycan array binding signal (z-score): 0.403
[5]
  glycan array binding signal (z-score): 7.33
[6]
  glycan array binding signal (z-score): 0.289
[7]
  glycan array binding signal (z-score): -0.631
[8]
  glycan array binding signal (z-score): 1.22
[9]
  glycan array binding signal (z-score): -0.428
[10]
  glycan array binding signal (z-score): -0.376
[11]
  glycan array binding signal (z-score): -0.535
[12]
  glycan array binding signal (z-score): -0.758
[13]
  glycan array binding signal (z-score): 0.241
[14]
  glycan array binding signal (z-score): -0.515
[15]
  glycan array binding signal (z-score): -0.211
[16]
  glycan array binding signal (z-score): -0.208
[17]
  glycan array binding signal (z-score): -0.222
[18]
  glycan array binding signal (z-score): -0.254
Gal(b1-4)GlcNAc6P
  glycan array binding signal (z-score): -0.575
Gal(b1-6)Gal
  glycan array binding signal (z-score): -0.433
Gal3S(b1-3)GalNAc
  glycan array binding signal (z-score): -0.529
Gal3S(b1-3)GlcNAc
  glycan array binding signal (z-score): -0.219
[19]
  glycan array binding signal (z-score): -0.44
Gal3S(b1-4)Glc
  glycan array binding signal (z-score): 0.382
Gal3S(b1-4)Glc6S
  glycan array binding signal (z-score): -0.122
Gal3S(b1-4)GlcNAc
  glycan array binding signal (z-score): 0.028
[20]
  glycan array binding signal (z-score): -0.229
[21]
  glycan array binding signal (z-score): -0.359
[22]
  glycan array binding signal (z-score): -0.049
Gal3S4S(b1-4)GlcNAc
  glycan array binding signal (z-score): 0.105
Gal3S6S(b1-4)GlcNAc
  glycan array binding signal (z-score): 0.207
Gal3S6S(b1-4)GlcNAc6S
  glycan array binding signal (z-score): 0.079
Gal4S(b1-4)GlcNAc
  glycan array binding signal (z-score): -0.154
Gal4S6S(b1-4)GlcNAc
  glycan array binding signal (z-score): -0.267
Gal6P(b1-4)GlcNAc
  glycan array binding signal (z-score): 0.201
Gal6S(b1-3)GlcNAc
  glycan array binding signal (z-score): 0.546
Gal6S(b1-3)GlcNAc6S
  glycan array binding signal (z-score): 1.26
Gal6S(b1-4)Glc
  glycan array binding signal (z-score): 0.077
